Measurements taken from a compilation of properties of binary mixtures (doi:10.1016/j.jtice.2022.104319).
Some of these densities may be calculated back from excess volumes.

Assay: xn = mol fraction of the nth substance listed
Conditions: 100 kPa

C=CC[n+]1ccn(C)c1.N#C[N-]C#N + O
mass density [kg/m3]
Conditions	288.15 K	293.15 K	298.15 K	303.15 K	308.15 K	313.15 K	318.15 K
x1 = 0.9256	–	–	1252.4	1248.8	1245.3	1241.9	1238.4
x1 = 0.9413	1260	–	1252.9	–	1245.9	1242.4	1239
x1 = 0.9556	1260.4	1256.9	1253.3	1249.8	1246.3	1242.9	1239.4
x1 = 0.9684	–	1257.2	1253.6	1250.1	–	–	1239.7
x1 = 1	–	1258.2	1254.6	1251.1	–	1244.1	–
x2 = 0.0155	1261.3	1257.7	1254.2	–	1247.2	1243.7	–
